Hit rate of the full screen: of about 310,000 compounds, about 2,200 (0.71%) showed an effect of 50% or more. The effect is printed as a negative number. This is one part of the list.
The molecules below were run against human ether-à-go-go-related gene (hERG) potassium channel (human, UniProt Q12809) (assay: primary screen, population patch clamp on CHO cells stably expressing hERG).
Sequence of human ether-à-go-go-related gene (hERG) potassium channel (Q12809 whole entry, looked up): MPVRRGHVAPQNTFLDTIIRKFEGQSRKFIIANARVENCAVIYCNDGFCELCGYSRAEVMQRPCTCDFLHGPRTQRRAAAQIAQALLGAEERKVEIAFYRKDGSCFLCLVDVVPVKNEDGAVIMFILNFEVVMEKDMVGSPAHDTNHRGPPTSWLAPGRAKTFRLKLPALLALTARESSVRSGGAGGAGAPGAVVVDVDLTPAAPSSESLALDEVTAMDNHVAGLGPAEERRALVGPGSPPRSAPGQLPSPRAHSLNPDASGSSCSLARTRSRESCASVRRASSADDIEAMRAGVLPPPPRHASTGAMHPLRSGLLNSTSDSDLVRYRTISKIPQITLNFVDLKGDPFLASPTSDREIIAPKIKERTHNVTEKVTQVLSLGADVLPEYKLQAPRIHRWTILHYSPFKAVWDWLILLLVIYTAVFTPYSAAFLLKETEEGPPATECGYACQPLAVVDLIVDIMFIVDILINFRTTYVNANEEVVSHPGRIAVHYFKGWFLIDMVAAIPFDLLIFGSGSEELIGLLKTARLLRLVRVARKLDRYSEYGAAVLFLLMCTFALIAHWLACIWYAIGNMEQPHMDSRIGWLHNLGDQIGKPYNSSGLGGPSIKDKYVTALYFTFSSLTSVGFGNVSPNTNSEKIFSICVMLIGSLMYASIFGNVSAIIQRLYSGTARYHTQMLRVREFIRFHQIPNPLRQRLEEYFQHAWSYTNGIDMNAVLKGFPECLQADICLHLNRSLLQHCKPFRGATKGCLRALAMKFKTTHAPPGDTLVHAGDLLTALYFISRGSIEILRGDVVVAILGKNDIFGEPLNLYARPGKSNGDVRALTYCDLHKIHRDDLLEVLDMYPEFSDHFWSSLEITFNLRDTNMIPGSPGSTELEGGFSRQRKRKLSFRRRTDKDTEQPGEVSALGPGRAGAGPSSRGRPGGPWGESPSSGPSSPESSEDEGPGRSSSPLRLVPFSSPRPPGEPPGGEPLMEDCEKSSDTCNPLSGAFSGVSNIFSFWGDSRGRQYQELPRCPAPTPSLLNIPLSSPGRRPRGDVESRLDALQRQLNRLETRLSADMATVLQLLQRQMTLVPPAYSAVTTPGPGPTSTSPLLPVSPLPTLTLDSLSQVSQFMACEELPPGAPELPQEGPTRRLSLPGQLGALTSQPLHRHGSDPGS

Structure (SMILES)	hERG current change (%, negative = inhibition) at 1uM [%]
Cc1ccc(C2Nc3ccccc3C(=O)N2Cc2ccco2)cc1 (stereo not drawn)	0.0211
c1ccc(-c2nnc3sc(-c4ccncc4)nn23)cc1	11.6
CCN(CC(=O)Nc1ccc(NC(C)=O)cc1)C(=O)/C=C/c1c(C)nn(-c2ccc(F)cc2)c1C	13.6
COc1ccc(CCNC(=O)CCC(=O)N2CCN(S(=O)(=O)c3ccc(Cl)cc3)CC2)cc1OC	3.85
CCOc1ccc2nnc(-c3ccc(Br)cc3)n2n1	1.81
N#Cc1c(C(F)(F)F)cc(-c2ccc(F)cc2)nc1SCC(=O)O	9.97
COC(=O)COc1ccc2c(c1)O/C(=C\c1ccco1)C2=O	12.6
CCOc1ccccc1NC(=O)C1(S(=O)(=O)c2ccc(Cl)cc2)CC1	3.47
OCCNCCOc1ccccc1F	3.87
C=C(C)CSc1nc2nc(C)c(Br)cc2[nH]1	6.49
O=C(OCc1cc2ccccc2[nH]c1=O)c1ccco1	10.7
CCC(=O)NCCN1CCN(C(=O)CC)CC1	8.17
CCOc1ccc(N2C(=O)CN(CC(=O)OC)C2=S)cc1	3.72
Cc1ccc(OCC(=O)c2cc(C)n(C3CC3)c2C)c([N+](=O)[O-])n1	-7.47
O=C(Cc1c[nH]c2ccccc12)NCc1ccc(Cl)cc1Cl	1.33
CCOC(=O)C1(CC2CC2)CCN(C(=O)c2cccnc2C)CC1	7.55
Cc1nc2ncnn2c(N2CCCC(C(=O)Nc3ccccc3Br)C2)c1C (stereo not drawn)	-7.8
COc1ccc(NC(=O)C2CCC(CNS(=O)(=O)c3cccs3)CC2)cc1OC (stereo not drawn)	2.15
O=C(NCCCCCNC(=O)c1cccnc1)c1cccnc1	8.71

Structure (SMILES)	hERG current change (%, negative = inhibition) at 1uM [%]
O=C(NC1CCN(Cc2ccccc2)CC1)C1CCN(S(=O)(=O)c2ccccc2)CC1	1.18
CCC(=O)c1ccc(OCC(O)CN(CCc2ccccc2)Cc2ccccc2)cc1.Cl (stereo not drawn)	8.54
CCOc1cc(C(=O)Nc2ccncc2)cc(OCC)c1OCC	11.3
Cc1ccccc1NC(=O)c1ccc(F)c(S(=O)(=O)NCC2CCCO2)c1 (stereo not drawn)	9.65
CC(=O)Nc1cccc(-c2csc(N)n2)c1	13.1
CCOc1ccc(OCC(=O)N(C)c2c(N)n(Cc3ccccc3)c(=O)[nH]c2=O)cc1	8.23
CCOC(=O)Cc1csc(NC(=O)CSc2nnnn2-c2ccc(C)cc2C)n1	13.8
CCOC(=O)c1c(Cc2ccc(Cl)cc2)c[nH]c1C	10.8
COc1cc(/C=C(\C#N)C(=O)NCC2CCCO2)c([N+](=O)[O-])cc1OC (stereo not drawn)	8.27
CCOCC(=O)Nc1ccccc1C(=O)OCC	-3.16
COc1ccc(CCNC(=O)C2CC(c3ccc(C(F)(F)F)cc3)=NO2)cc1 (stereo not drawn)	2.01
CCOC(=O)c1cc(C(O)(C(=O)OC)C(F)(F)F)c(/N=C/N(C)C)o1 (stereo not drawn)	3.28
CCOC(=O)C1(C)NC(c2ccc(N(C)C)cc2)C2C(=O)N(CC)C(=O)C21 (stereo not drawn)	11.8
CCOc1ccc(S(=O)(=O)N(CC)CC(=O)NC2CC2)cc1	-7.06
COC(=O)C1=C(C(=O)OC)[C@@H]2N(C)c3ccccc3[C@@]23C[C@@H](C(=O)OC)N(C(=O)c2cccs2)C3=N1	9.35
COc1ccc(-c2cc(=O)c3c(OC)c(OC)c(OC)cc3o2)cc1	11.6
O=C(CC(=O)Nc1ccccn1)Nc1ccccn1	10.9
Cn1c(CCNC(=O)c2cc(COc3ccc(F)c(F)c3)on2)nc2ccccc21	3.16
C/C(=N\NC(=O)c1cccc([N+](=O)[O-])c1)c1cccc(NC(=O)C2CC2)c1	10

Structure (SMILES)	hERG current change (%, negative = inhibition) at 1uM [%]
CCOC(=O)c1ccc(NC(=O)CCOc2ccccc2)cc1	4.29
CC(C)CC1Nc2ncnc(N3CCCCC3)c2N(Cc2ccc(Br)cc2)C1=O.O=C(O)C(F)(F)F (stereo not drawn)	9.95
CCN1C(=O)/C(=C2/C=Cc3ccccc3N2C)OC1=S	12.2
CCCCN(C)Cc1c(O)ccc2c(=O)c(-c3ccccc3OC)coc12	12.3
Brc1cnc2nc(SCc3nc4ccccc4[nH]3)[nH]c2c1	7.45
NC(=O)c1ccc(NC(=O)CCCN2C(=O)NC3(CCCC3)C2=O)cc1	-2.15
Cc1ccc(C(=O)N2CCN=C2SCc2ccc([N+](=O)[O-])cc2)cc1C	4.48
Cc1ccc(-n2c(C)cn(C(=O)c3ccccc3)c2=S)cc1	26.6
O=C1c2ccccc2C(=O)N1CCCc1nc(-c2ccncc2)no1	9.92
Cc1cc(C)c(C)c(S(=O)(=O)N2CCNCC2)c1C	12.2
O=C(COc1ncnc2ccc(Br)cc12)N1CCOCC1	4.11
CCCCn1c(O)c(N=NC(=O)Cn2c(C(F)(F)F)nc3ccccc32)c2ccccc21	17.2
CS(=O)(=O)c1ccc(C(=O)Nc2cccc(-c3nc4ccccc4[nH]3)c2)cc1	15.2
O=C(Nc1ccccc1)C1=C[C@@H](c2ccc(Br)cc2)C[C@@H](OCc2ccc(CO)cc2)O1	14.7
C/C(CC(=O)Nc1ccc(C)cc1C)=N\NC(=O)C(C)C	0.252
S=C(Nc1ccccc1Cl)NC1CCC(NC(=S)Nc2ccccc2Cl)CC1 (stereo not drawn)	9.43
O=C(Cc1ccccc1[N+](=O)[O-])Nc1ccc(S(=O)(=O)N2CCCC2)cc1	9.52
C=CCc1ccc(OCCn2cncn2)c(OC)c1	13.6
O=C(NNS(=O)(=O)c1ccccc1)c1cccc(F)c1	14.7

From PMC4336329 (PLoS ONE, 2015)
